Measurements reported in the supplement of paper PMC9927326.
MIC of clinical C. albicans isolates, CLSI broth microdilution (ranges and time not stated); higher = less susceptible. Call: susceptible or wild type [S] / resistant or non-wild type [R] by CLSI breakpoints or epidemiological cut-offs; intermediate and dose-dependent carry no call here (the paper groups them with resistant). '<=' and '>=' mark each drug's lowest and highest value, inferred; the source prints them plain. Isolates are numbered anew.

Assays:
Assay in all cases: CLSI broth microdilution.
flucytosine = compound: Nc1[nH]c(=O)ncc1F [flucytosine]
micafungin = compound: CCCCCOc1ccc(-c2cc(-c3ccc(C(=O)N[C@H]4C[C@@H](O)[C@@H](O)NC(=O)[C@@H]5[C@@H](O)[C@@H](C)CN5C(=O)[C@H]([C@H](O)CC(N)=O)NC(=O)[C@H]([C@H](O)[C@@H](O)c5ccc(O)c(OS(=O)(=O)O)c5)NC(=O)[C@@H]5C[C@@H](O)CN5C(=O)[C@H]([C@@H](C)O)NC4=O)cc3)no2)cc1 [micafungin]
posaconazole = compound: CC[C@@H]([C@H](C)O)n1ncn(-c2ccc(N3CCN(c4ccc(OC[C@@H]5CO[C@@](Cn6cncn6)(c6ccc(F)cc6F)C5)cc4)CC3)cc2)c1=O [posaconazole]
anidulafungin = compound: CCCCCOc1ccc(-c2ccc(-c3ccc(C(=O)N[C@H]4C[C@@H](O)[C@@H](O)NC(=O)[C@@H]5[C@@H](O)[C@@H](C)CN5C(=O)[C@H]([C@@H](C)O)NC(=O)[C@H]([C@H](O)[C@@H](O)c5ccc(O)cc5)NC(=O)[C@@H]5C[C@@H](O)CN5C(=O)[C@H]([C@@H](C)O)NC4=O)cc3)cc2)cc1 [anidulafungin]
voriconazole = compound: C[C@@H](c1ncncc1F)[C@](O)(Cn1cncn1)c1ccc(F)cc1F [voriconazole]
itraconazole = compound: CCC(C)n1ncn(-c2ccc(N3CCN(c4ccc(OCC5COC(Cn6cncn6)(c6ccc(Cl)cc6Cl)O5)cc4)CC3)cc2)c1=O [itraconazole]
fluconazole = compound: OC(Cn1cncn1)(Cn1cncn1)c1ccc(F)cc1F [fluconazole]
caspofungin = compound: CC[C@H](C)C[C@H](C)CCCCCCCCC(=O)N[C@H]1C[C@@H](O)[C@@H](NCCN)NC(=O)[C@@H]2[C@@H](O)CCN2C(=O)[C@H]([C@H](O)CCN)NC(=O)[C@H]([C@H](O)[C@@H](O)c2ccc(O)cc2)NC(=O)[C@@H]2C[C@@H](O)CN2C(=O)[C@H]([C@@H](C)O)NC1=O [caspofungin]
amphotericin B = compound: C[C@@H]1[C@H](O)[C@@H](C)/C=C/C=C/C=C/C=C/C=C/C=C/C=C/[C@H](O[C@@H]2O[C@H](C)[C@@H](O)[C@H](N)[C@@H]2O)C[C@@H]2O[C@](O)(C[C@@H](O)C[C@@H](O)[C@H](O)CC[C@@H](O)C[C@@H](O)CC(=O)O[C@H]1C)C[C@H](O)[C@H]2C(=O)O [amphotericin B]

| Test System | MIC (flucytosine) | MIC (micafungin) | MIC (posaconazole) | MIC (anidulafungin) | MIC (voriconazole) | MIC (itraconazole) | MIC (fluconazole) | MIC (caspofungin) | MIC (amphotericin B) |
| --- | --- | --- | --- | --- | --- | --- | --- | --- | --- |
| Candida albicans isolate 116 (Erg11p: E266D,D153E, Fur1p: WT, Tac1p: C858Y,N823K,I558V,F189S) | ≤ 0.06 mg/L [S] | ≤ 0.008 mg/L [S] | 0.015 mg/L [S] | ≤ 0.015 mg/L [S] | ≤ 0.008 mg/L [S] | ≤ 0.015 mg/L [S] | 0.5 mg/L [S] | 0.015 mg/L [S] | ≤ 0.12 mg/L [S] |
| Candida albicans isolate 306 (Erg11p: D153E, Fur1p: WT, Tac1p: N896S) | 0.12 mg/L [S] | 0.015 mg/L [S] | 0.03 mg/L [S] | 0.06 mg/L [S] | ≤ 0.008 mg/L [S] | 0.06 mg/L [S] | 0.5 mg/L [S] | 0.06 mg/L [S] | 0.5 mg/L [S] |
| Candida albicans isolate 370 (Erg11p: V488I,E266D, Fur1p: WT, Tac1p: N896S,L751S,M170V,S108N) | ≤ 0.06 mg/L [S] | 0.015 mg/L [S] | ≤ 0.008 mg/L [S] | 0.06 mg/L [S] | ≤ 0.008 mg/L [S] | ≤ 0.015 mg/L [S] | 0.25 mg/L [S] | 0.03 mg/L [S] | 0.25 mg/L [S] |
| Candida albicans isolate 156 (Erg11p: V488I,E266D, Fur1p: WT, Tac1p: N896S,L550S) | ≤ 0.06 mg/L [S] | 0.015 mg/L [S] | 0.015 mg/L [S] | 0.06 mg/L [S] | ≤ 0.008 mg/L [S] | 0.03 mg/L [S] | 0.25 mg/L [S] | 0.03 mg/L [S] | 0.5 mg/L [S] |
| Candida albicans isolate 197 (Erg11p: D153E, Fur1p: WT, Tac1p: N896S) | ≤ 0.06 mg/L [S] | 0.015 mg/L [S] | 0.015 mg/L [S] | 0.03 mg/L [S] | ≤ 0.008 mg/L [S] | 0.03 mg/L [S] | 0.5 mg/L [S] | 0.03 mg/L [S] | 0.25 mg/L [S] |
| Candida albicans isolate 290 (Erg11p: WT, Fur1p: WT, Tac1p: WT) | ≤ 0.06 mg/L [S] | 0.015 mg/L [S] | 0.03 mg/L [S] | 0.03 mg/L [S] | ≤ 0.008 mg/L [S] | 0.03 mg/L [S] | 0.5 mg/L [S] | 0.03 mg/L [S] | 0.5 mg/L [S] |
| Candida albicans isolate 352 (Erg11p: V488I,E266D, Fur1p: WT, Tac1p: N896S,M170V,S108N) | ≤ 0.06 mg/L [S] | 0.015 mg/L [S] | 0.015 mg/L [S] | ≤ 0.015 mg/L [S] | ≤ 0.008 mg/L [S] | ≤ 0.015 mg/L [S] | 0.5 mg/L [S] | 0.015 mg/L [S] | 0.5 mg/L [S] |
| Candida albicans isolate 351 (Erg11p: E266D, Fur1p: WT, Tac1p: C908Y,A377V,N174D,M170I,I109N,K87N) | 0.25 mg/L [S] | 0.06 mg/L [S] | ≥ 8 mg/L [R] | 0.25 mg/L [S] | ≥ 8 mg/L [R] | ≥ 16 mg/L [R] | ≥ 256 mg/L [R] | 0.25 mg/L [S] | 1 mg/L [S] |
| Candida albicans isolate 33 (Erg11p: WT, Fur1p: WT, Tac1p: I558V,A377V,F189S,N174D,M170I,K87N) | ≤ 0.06 mg/L [S] | ≤ 0.008 mg/L [S] | 0.015 mg/L [S] | 0.12 mg/L [S] | ≤ 0.008 mg/L [S] | ≤ 0.015 mg/L [S] | 0.25 mg/L [S] | 0.03 mg/L [S] | 0.5 mg/L [S] |
| Candida albicans isolate 160 (Erg11p: V488I,E266D, Fur1p: WT, Tac1p: M170V,S108N) | ≤ 0.06 mg/L [S] | 0.015 mg/L [S] | 0.015 mg/L [S] | 0.03 mg/L [S] | ≤ 0.008 mg/L [S] | 0.03 mg/L [S] | 0.5 mg/L [S] | 0.015 mg/L [S] | 0.5 mg/L [S] |
| Candida albicans isolate 97 (Erg11p: Y132H,T123I, Fur1p: R101C, Tac1p: WT) | 0.12 mg/L [S] | 0.015 mg/L [S] | 0.03 mg/L [S] | ≤ 0.015 mg/L [S] | 0.25 µg/mL | 0.06 mg/L [S] | 4 µg/mL | 0.015 mg/L [S] | 0.5 mg/L [S] |
| Candida albicans isolate 54 (Erg11p: E266D,G129A, Fur1p: WT, Tac1p: R869Q,L695F,I558V,A377V,F189S,M170V,L131I) | ≤ 0.06 mg/L [S] | 0.015 mg/L [S] | 0.015 mg/L [S] | ≤ 0.015 mg/L [S] | ≤ 0.008 mg/L [S] | ≤ 0.015 mg/L [S] | 0.5 mg/L [S] | 0.015 mg/L [S] | 0.25 mg/L [S] |
| Candida albicans isolate 233 (Erg11p: WT, Fur1p: WT, Tac1p: N896S) | ≤ 0.06 mg/L [S] | 0.015 mg/L [S] | 0.03 mg/L [S] | ≤ 0.015 mg/L [S] | ≤ 0.008 mg/L [S] | ≤ 0.015 mg/L [S] | 0.25 mg/L [S] | 0.015 mg/L [S] | 0.25 mg/L [S] |
| Candida albicans isolate 337 (Erg11p: V437I,E266D, Fur1p: WT, Tac1p: N896S,I895T,M170V) | ≤ 0.06 mg/L [S] | 0.015 mg/L [S] | 0.015 mg/L [S] | 0.06 mg/L [S] | ≤ 0.008 mg/L [S] | 0.06 mg/L [S] | 0.5 mg/L [S] | 0.03 mg/L [S] | 0.5 mg/L [S] |
| Candida albicans isolate 275 (Erg11p: V488I,E266D, Fur1p: WT, Tac1p: N896S) | ≤ 0.06 mg/L [S] | ≤ 0.008 mg/L [S] | 0.015 mg/L [S] | ≤ 0.015 mg/L [S] | ≤ 0.008 mg/L [S] | ≤ 0.015 mg/L [S] | 0.25 mg/L [S] | 0.015 mg/L [S] | 0.25 mg/L [S] |
